This data set is described as follows: soluble fraction after stress (log2 fold change); higher = more stays soluble; pooled small domains, quantitative proteomics. As to conditions: stress: 50 degC. In short, it runs like this: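 Quantitative proteomics served as the high-throughput read-out for pooled custom libraries of small protein domains. Each was stressed at 50°C. Aggregation propensity is expressed as the base-two log fold change in soluble protein after stress. A higher value means a larger share of the protein remains in solution.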

Turning to “HMRRLQTVVFQKGLATTIRQARQLINHGHIFVDGHKVTVPGYLVLREEEGSVAYNPASPFTDENHPM”, the “soluble fraction (log2)” value is -2.04. In the case of “HMTEEDLIEAFKIFDKDGNGVISAQELRHVMTTLGERLTEEEADEMIREADIDGDGYINYHEFVRIMM”, the “soluble fraction (log2)” value was determined as 0.0204.
